# Test results taken from the supplement of paper PMC11417369.
# The other results are listed elsewhere or left out.
# Test system: PfAP2-HC AP2 domain (GST-tagged)
# Assay: gcPBM binding intensity (ln(normalized median fluorescence intensity)); higher = stronger DNA binding
# Procedure, shortened: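 Binding of GST-tagged P. falciparum DNA-binding domains, expressed in E. coli and used at about 25 μg on average, was carried out for 1 h in 1× PBS containing 1% milk, 0.2 mg/ml BSA, 0.5% salmon testes DNA and 0.03% Triton X-100. The target was an Agilent 4 × 180k array of primer-extended double-stranded 36-bp intergenic genomic probes plus negative controls, read with Alexa488 anti-GST antibody at 488 nm. Binding intensity is the highest Masliner-normalised natural-log median intensity across replicate spots of either probe orientation.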
row,Sequence,gcPBM binding intensity (ln)
1,CAAAATATAAAAACATGTACATAAATATTAACGAAT [XGTACX_site2380],9.96
2,TCATCCACATATTGTAGTACAAGATAATTGTTTATT [XGTACX_site1634],9.63
3,ATATGTTTATTAAATGCATGTCAAGACTTAAGATAT [TGCATGCA_site329],9.51
4,AACATATACACGAACACACACACATATAAATAAATA [CACACA_site6380],10.4
5,AAAAATACAATTTTCTTGCACTTTGTTGCATTGTAA,9.66
6,TCATATATAAAAAGGGTGCTTTTAAAAGAATGGATT,9.71
7,CAAAAAATGAAACACACACACACACCCATAAATAAA [CACACA_site1231],10.8
8,CAGATATTTGTTCATATACACACTTTTGATAAAATA [CACACA_site1219],9.64
9,AATATTTTTTGTTTTACACACATATATAGATATATA [CACACA_site7662],9.82
10,TTTTTTGGGTAAAATTATAAAATATGTATATATAAA [CACACA_negctrl_site27],9.24
11,TTTTTTTTTGTATTTTCACACATTTTTTTTTTTTTT [CACACA_site5407],9.82
12,TTATTTAAACAAATCACACACAAATATATATACATA [CACACA_site2019],10
13,ATATGCATAAAAAGAGGTACACATAAAATATATATA [XGTACX_site5864],9.89
14,TATACACATATATAAAGTACATATATGTGTAAAAAA [XGTACX_site8582],9.88
15,TCTTCCGCTTTATGGAGTACTATGGTAGCCTTTCCT [XGTACX_site2958],9.52
16,GACCTACAAAAAGGCACACATATACGCATACATACA [CACACA_site2179],9.82
17,CATATTTTCAAAATTAGTACATAAAAAAAAAAATAT [XGTACX_site3101],9.58
18,TATAATCATATATACACACACATATATATATATATA [CACACA_site2168],10.1
19,AATATAAATAATATATGTACATATATATATATATAT [XGTACX_site1021],9.67
20,AAAGTATTCTTTACACGTACATATATATAAATATAA [XGTACX_site7557],9.59
21,AGAATTGTTGTTAAAGAATTCTTTTTTATCCTTCCC [CACACA_negctrl_site1820],9.39
22,TTTGTATATATTAATGTACACACATGCGTATGTTCG [CACACA_site9193],9.88
23,AATATAGATATAAAAAGTACATTATATATATATATA [XGTACX_site6899],10

row,Sequence,gcPBM binding intensity (ln)
1,ATGACTCTCAAGTTTGCACACATTTATATTTTTTAA [CACACA_site2605],10.1
2,TATACATACCATAATGCATGTAAGAACAAATAACTG [TGCATGCA_site264],9.79
3,AAAAAAAAAAAAAAGGTGCATACTTTGAATTAATAT [GTGCAC_site9401],9.56
4,GTATATCATATTTCATGTACACAAAAAAATAAAAAT [XGTACX_site704],9.79
5,ACAAAATTTACAAAATGTACAAAATTTACAAAGTAT [XGTACX_site6463],9.61
6,TATATATATTATATATGTACATATTATATATATATA [XGTACX_site7300],9.39
7,ATATATTTGATAAGAGTGCACAAATACATACATACA [GTGCAC_site9704],9.89
8,AAAAAAAAAAAATGCACACATATATTTCCATATACA [CACACA_site1471],9.78
9,TATATATATAAACACACACACATATATATATATATA [CACACA_site4584],10
10,TTTAAAATACAGAAGGTGCATTTAACATATTTGTAT,9.55
11,ATATATATATATATATGTACTAATTAATATTTCGAG [XGTACX_site580],9.44
12,ATATATATATATGAATCACACACAAAAAATATAGAG [CACACA_site9298],10.1
13,ATAAAATAATGAAAAACACACATTTTTATTTGTATA [CACACA_site3369],9.7
14,AATAACATGTTATATACACACATTATGAAGTCTTCA [CACACA_site746],9.71
15,ATTGTTTTTTTTTCTTTGTGGAATGAATGAATATAT [XGTACX_negctrl_site603],9.55
16,AAGATTATAAATATATGTACATAAATATATTATATA [XGTACX_site8056],9.64
17,ATAATACTACCTACATGTACTTATATATAAATGAAT [XGTACX_site3417],9.79
18,GTTTTAACAAAATTAGTGCATTTATCAATTATATAA,9.32
19,TTTTTTTTTTCAATGGCACACATTTTAGATTTATGC [CACACA_site1074],9.72
20,ACATCAAGCGGACACACACACACACCGACAGACACA [CACACA_site4361],10.9
21,AAAGAATCAAGAATAGTGCAAATATGTATAACCTTT,9.99
22,ATACAAAAAGTAAAAAGTACTTAACTAAATATATAA [XGTACX_site2335],9.71
23,TTTTCAATATATTAATGTACGAATACGCAAATAAGA [XGTACX_site1613],9.55

row,Sequence,gcPBM binding intensity (ln)
1,TTAATAAATAAAAATGCACACAGTTAACATGTTGAA [CACACA_site1200],9.74
2,GCACATAAATATATGACACACACACCGATTATATAT [CACACA_site9003],10.8
3,AAAAAAAAAAAAAAAACACACAAACATCAAATTATT [CACACA_site5083],9.85
4,ATAATAATTTAATACATACACACGTATATCTTTTTT [CACACA_site2041],9.84
5,TTTTTTTTTTTTTTTGCACACACATAATAGGTACAA [CACACA_site3578],9.95
6,GCAGGATTGGTTCAAACACACATATTATATGACTAT [CACACA_site660],9.77
7,ATCTTATATGATCACACACACACGCACAAAACAGAA [CACACA_site4913],10.4
8,TGTGGTTACATGTGCACACACTTATTTCGTTCTTAT [CACACA_site4907],10.4
9,TAAATATATATATACACACACATACACAAAAAAAAA [CACACA_site3580],10.5
10,ATTGCATATAATGGCACACATAAATCCATAATATAT [CACACA_site297],9.74
11,TTTATATATATATATATATATAATAAATGATACACA [TGCATGCA_negctrl_site392],9.61
12,TATTTTTTTTCTTATACACACCATGCATCAAACTAA [CACACA_site5208],9.72
13,TCAAAAATATTCTGGAGTACCTTTTTAAAGGTATAG [XGTACX_site6893],9.37
14,TTTGCACCGTTTAAGTGTACAGAATTATGACATATA [XGTACX_site6735],9.51
15,ATTAAAAAAATTAAAAGTACACATATTTCAATGATA [XGTACX_site5606],9.4
16,TAAGTTATATGTATATGTACTTATATATATATATAT [XGTACX_site5402],9.66
17,TAAAAAAAAAAAAAAACACACATATAAATATATATA [CACACA_site1243],9.62
18,AAAATTAAAAAGAACACACAAATATATCTATAATAA [CACACA_site7660],10
19,TAATCGAAACAAAGAACATGCAAACATATACCTATA [TGCATGCA_site894],9.65
20,CAAAATTTATGTAAAAGTACAAAAATATAGAAAGAT [XGTACX_site1122],9.88
21,TGTGTTCATCTATGCACACGCATATATATTATTGTT [CACACA_site5985],9.9
22,TTTTATTCCTTCTTTGCACACGTTTAAAAATATATA [CACACA_site2899],9.88
23,AATATAATATAAGGATCACACACAAACACCCATATA [CACACA_site8084],10.3

row,Sequence,gcPBM binding intensity (ln)
1,TTTATATAAAAAAATTGTACATATTTATTATAAACA [XGTACX_site2124],9.41
2,TGTATGCATATTTGATGTACGCACATATACTAATTT [XGTACX_site3159],9.7
3,ATAATAAATAAAATAACACACATATATAGATATATA [CACACA_site6224],10
4,TATATTCTTATTATTGCATGCTGCACGAAGATTTTC [TGCATGCA_site831],9.74
5,GTATGTTTGTTATGCACACAAATGCATCTTATTTCC [CACACA_site2690],10
6,TTTAATTATAAGATAACACACAAAAAAAATAAAATA [CACACA_site254],9.86
7,TATTTAATTACATGAACACACATTATGTATTTTTAA [CACACA_site2962],9.74
8,TTTTTATTTAATAATATATTAATCATATAAATAAAT [GTGCAC_negctrl_site210],9.24
9,TAAAAAAAAAAAACAAGTACATATATAAATATATAT [XGTACX_site7537],9.53
10,AAATACTATATCAAGCGTACTTATTTCATGGTAATA [XGTACX_site7878],9.62
11,TTTAAAATATTTTCTTGTACGAAGGAACATTTCTTA [XGTACX_site4013],9.59
12,AAAAAAAAAAAAAGCACACACACATATGAGTATATA [CACACA_site4682],10.3
13,AATTTCAAATTGTATGTGCACATGTAGAAGTACTTT,9.85
14,GTGCCTTTAAAAAAAAGTACAAAAAAGAACGAATTA [XGTACX_site3714],9.51
15,TATATATATATATATTGTACATTTTTTTTTTTTTTT [XGTACX_site7891],9.39
16,TTTTCATTAAATATATATGCATACCATATGTACATT [GTGCAC_negctrl_site539],9.76
17,TATGTAAAGAGTAAGGGTACATGTATAATACGGCTC [XGTACX_site1283],9.88
18,TTATGGATAAATAAATGTACGTTAAGATAACACAAA [XGTACX_site4208],9.56
19,ATATACATATGTGTGTGTACTTATATCACATTTTTG [XGTACX_site3785],10.1
20,TCGACAAAGGCATATACACACATTTGTAACATAAAT [CACACA_site4471],9.7
21,GTTTTTTTGTTTTAGTGTACCTAAAACTGCATGTAG [XGTACX_site294],9.75
